The source of these data is the RNAGym collection of RNA variant scans (doi:10.1093/nar/gkz1192).

The chains are these.
B1: CPEB3 Ribozyme (parent)
chain: UAACAGGGGGCCACAGCAGAAGCGUUCACGUCGCAGCCCCUGUCAGAUUCUGGUGAAUCUGCGAAUUCUGCUGUAUAUCUC

The source gives no read counts; variants with many changes may rest on few reads.

Variants of B1 are the subject of the data set. Briefly: self-cleavage, relative activity (ratio to wild type); higher = more cleavage; in vitro, sequencing. Put shortly:
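Relative activity compares each variant's cleaved/total read fraction with that of the unmutated ribozyme. To get these fractions, barcoded CPEB3 ribozyme libraries from rounds of error-prone PCR were transcribed with T7 RNA polymerase for 5 hours at 37°C and then given 15 min of DNase I treatment before EDTA was added. The RNAs were reverse transcribed with template switching and sequenced on Illumina, and DNA sequencing linked barcodes to variants. A minimum of 5 reads applied, and three batches were averaged.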
On to UAACAAGGGGCCACGGCAGAAGCGUUCACGUCGCAACUCCUGUCAGAUUCUGGUGGAUCUGUGAAUUCUGCUGUCUAUCUC [G6A A15G G36A C38U A56G C62U A75C], for which the self-cleavage was found to be 0.03. The result for UAACUGGGGGCCACAGCAGAAGCGUUCACGUCGCAGCCCCUGUCAGAUUCUGGUGAAUCUGCGAAUUCUGCCGUGUAUCUC [A5U U72C A75G] reads 0.86. The result for UAACAAGGGGCCACAGCAGAAGCGUUCUCGUCGUAGCCCCUGUCAGACUCUGGUGGAUCUGCGAAUUCUGCUGUAUAUCUC [G6A A28U C34U U48C A56G] reads 0.05; that for UAACAAGGGGCCACAGCAGAGGCGUUCACGUCGCGGCCCCCGUCAGAUUCUGGUGAAUCUGCGAAUCCUGCUGUAUAUCUC [G6A A21G A35G U41C U67C], 0.05; that for UAACAAGGGGCCACAGCAGAAGCGUUCUCGUCGCAGCCCCUGUCAGAUUCUGGUGAAUCUGCGAAUACUGCUGUAUAUCUC [G6A A28U U67A], 0.07. The result for UAACAAGGGGCCACAGCGGAAGCAUUCACGUCGCGGCCCCUGUCAGAUUCUGGUGAGUCUGCGAAUUCUGCUGUAUAUCUC [G6A A18G G24A A35G A57G] reads 0.06; that for UAACAAGGGGCCACAGCAGAGGCGUCCACGUCGCAGCCCCUGUCGGAUUCUGGUGGAUCUGCGAAUUGUGCUGUACAUCUC [G6A A21G U26C A45G A56G C68G U76C], 0.07. Turning to UAACAAGGGGCCGCAGCGGAAGCGUUCACGUCGCAGCCCCUGUCAGGUUCUGGUGAAUCUGCGAAUUCCGCUGUAUAUCUC [G6A A13G A18G A47G U69C], the self-cleavage was found to be 0.28.

Take UAACAAGGGGCCACAGCAGAAGCGUUCACGUCGCUGCCCCUGUCAGAUUCUGGUGAAUCUGCGAAUCCUGCUGUAUAUCCC [G6A A35U U67C U80C]: the self-cleavage came out at 0.36. The same measure for UAACAAGGGGCCACAGCAGAGGCGUACACGCCGCAGCCCCUGUCAGAUUCUGGUGAAUCUGCGUAUUCUGCUGUAUAACUC [G6A A21G U26A U31C A64U U78A]: 0.13. The same measure for UAACAAGGGGCCACAGCAGUAGCGUUCACGUCGCAGCUCCUGUCAGAUUCUAGUGAAUCUGCGAAUUCUGCUGUAUAUCUC [G6A A20U C38U G52A]: 0.05. For the variant UAACAAGGGGCCACAGCAGAAGCGUUCACGUCGCAGCCCCUGUCAGAUUCUGGUGGAUCUGCGAAUUCUGCUGUAUACCUC [G6A A56G U78C], the self-cleavage amounted to 0.27. The same measure for UAACUGGGGGCCACAGCAGAAGCGUUCACGUCGCAGCCCCUGUCAGAUUCUGGGGAAUCCGCGAAUUCUGCUGUAUAUCUC [A5U U54G U60C]: 0.5.

For the variant UAACAAGGGGGCACAGCCGGAGCGUUCACGUCGCAGCCCCUGUCAGAUUCUGGUGAACCUGCGUAUUCUGCUGUAUAUCUC [G6A C11G A18C A20G U58C A64U], the self-cleavage was found to be 0.06. On to UAACAAGGGGCCACAGCAGAAGCGUUCACGUCGCCGCCCCUGUCAGGUUCUGGAGAACCUGCGAACUCUGCAGUAUAUCUC [G6A A35C A47G U54A U58C U66C U72A], for which the self-cleavage stood at 0.36. The same measure for UAACUGGGGGCCACAGCAGAAGCGUUCACGUCGCAGCCCCUGUCAGAUUCUGGUGAAUCAGCGAAUUCUUCUGUAUAUCUC [A5U U60A G70U]: 0.22; for UAACAAGGGGCCACAGCAGAGGCGCUCGCGUCGCAGCCCCUGUCAGAUUCUGGUGAAUCUGCGAAUUCUGCUGUAUAUCUC [G6A A21G U25C A28G]: 0.48.

As for UAACAAGGGGCCACAGCAGAAGCGUUCGCGUCACAGCCCCUGUCUGAUCCUGGUGAAUCUGCGAAUUCUGCUGCAUAUCUC [G6A A28G G33A A45U U49C U74C], the self-cleavage was 0.04. The same measure for UAACAAGGGGCCACGGCAGGAGCGUUCACGUCGCAGCCCCUGUCAGAUUCUGGUAUAUCUGCGAAUUCUGCUGUAUAUCUC [G6A A15G A20G G55A A56U]: 0.25. The result for UAACAAGGGGCCACAGCAGAAGCGUUCACGUCGCGGCCCCUGUCAGAUUCUGGUGAAUCUGCGAAUUUUGCUGUAUAUCAC [G6A A35G C68U U80A] reads 0.38.

Turning to UAACAAGGGGCCACAGCAGAAGCGUUCACGUCGCUGCCCCUGUCAGAUUCUGGUGAAUCUGCGAAUUCUGCUGUACAUCUC [G6A A35U U76C], the self-cleavage came to 0.11.

For UAACUGGGGGCCACAGCAGAAGCGUUCACGUCGCAGCCCCUGUCAGAUUCUGGUGAAACUGCGAGUUCUGCUGUAUAUCUC [A5U U58A A65G], the self-cleavage turned out to be 0.14. The result for UAACAAGGGGCCACAGCAGAAGCGUUCACGUCGCAGCCCCUGUCAGAUUCUGGUGGAUCUGCGAAUUCUGCUGUACUUCUC [G6A A56G U76C A77U] reads 0.08; that for UAACAAGGGGCCACAGCAGAAGCGUUCACGUCGCUGCCCCUGUCAGACUCUGGAGAAUCAGCGAGUUCUGCUGUAUAUCAC [G6A A35U U48C U54A U60A A65G U80A], 0.09; that for UAACUGGGGGCCACAGCAGAAGCGUUCACGUCGCAGCCCCUGUCAGAUUCUGGUGAAUCUGCGAAUCCUGCUGGAUAUCUC [A5U U67C U74G], 0.46. Take UAACAAGGGGCCACGGCAGAGGCGUUCACGUCGAAGCCCCUGUCAGAUUCAGGUGAAUCUGCGAAUCCUGCUGUAAAUCUC [G6A A15G A21G C34A U51A U67C U76A]: the self-cleavage was found to be 0.04. The same measure for UAACAAGGGGCCACAGCAGAGGCGUUCACGGCGCAGCCCCUGUCAGAUUCUGGUGUGUCUGCGAAUUCUGCUGUAUAUCUC [G6A A21G U31G A56U A57G]: 0.07; for UAACAAGGGGCCACAGCAGAAGCGUUCACGUCGCAGCCCCUGUCAGAUUCUGGUGGAACUGCGAAUUCUGCUGUAUAUCUC [G6A A56G U58A]: 0.31.

Consider UAACAAGGGGCCACAGCAGUAGCGUUCACGUCGCAGCCCCUGUCAGAUUCUGGUGAAUCAGCGAAUCCCGCUGUAGAUCUC [G6A A20U U60A U67C U69C U76G], for which the self-cleavage was 0.04. The result for UAACUGGGGGCCACAGCAGAAGCGUUCACGUCGCAGCCCCUGUCAGAUUCUGGUGAAUCCGCGAAUUCUGCAGUAUAUCCC [A5U U60C U72A U80C] reads 0.58. The result for UAACAAGGGGCCACAGCAGGAGCGUUCACGUCGCAGCCACUGUCGGAUUCUGGUGAAUCUGCGAAUCCUGCUGUAUAUCUC [G6A A20G C39A A45G U67C] reads 0.06. UAACAAGGGGCCACAGCAGAAGCGUUCGCGACGCAGCCCCUGUCAGAUUCUGGUGAAUCUGCGAAUCCUGCUGUAUAUCUC [G6A A28G U31A U67C]: the self-cleavage was found to be 0.13. In the case of UAACAAGGGGCCGCAGCAGAAGCGUUCGUGUCCCAGCCCCUGUCAGAUUCUGGUGAAUCUGCGAAUUAUGCUGUAUAACUC [G6A A13G A28G C29U G33C C68A U78A], the self-cleavage was 0.04. The result for UAACAAGGGGCCACUGCAGAAGCGUUCACGUCGCAGCCCCUGCCAGAUUCUGGUGAAUCUGCGAAUUCUGCAGUAAAUCUC [G6A A15U U43C U72A U76A] reads 0.08.
